# About 31,000 (8.9%) of roughly 350,000 compounds were called active. This list was built around the results that the source calls inconclusive (neither active nor inactive); the mix of calls is not that of the screen. Calls come from the whole dose curve; as a rule, active = well fitted inhibition curve with a large enough effect; inconclusive = small, poorly fitted or top-dose-only effect; inactive = no such curve, though single readings can be large or run the other way. Potencies beside an inconclusive call are fits to weak or partial responses and may not hold up.
# Biological target: Histone-lysine N-methyltransferase EHMT2 (Homo sapiens) (UniProt Q96KQ7)
# Sequence of UniProt Q96KQ7 (Q96KQ7 whole entry, looked up): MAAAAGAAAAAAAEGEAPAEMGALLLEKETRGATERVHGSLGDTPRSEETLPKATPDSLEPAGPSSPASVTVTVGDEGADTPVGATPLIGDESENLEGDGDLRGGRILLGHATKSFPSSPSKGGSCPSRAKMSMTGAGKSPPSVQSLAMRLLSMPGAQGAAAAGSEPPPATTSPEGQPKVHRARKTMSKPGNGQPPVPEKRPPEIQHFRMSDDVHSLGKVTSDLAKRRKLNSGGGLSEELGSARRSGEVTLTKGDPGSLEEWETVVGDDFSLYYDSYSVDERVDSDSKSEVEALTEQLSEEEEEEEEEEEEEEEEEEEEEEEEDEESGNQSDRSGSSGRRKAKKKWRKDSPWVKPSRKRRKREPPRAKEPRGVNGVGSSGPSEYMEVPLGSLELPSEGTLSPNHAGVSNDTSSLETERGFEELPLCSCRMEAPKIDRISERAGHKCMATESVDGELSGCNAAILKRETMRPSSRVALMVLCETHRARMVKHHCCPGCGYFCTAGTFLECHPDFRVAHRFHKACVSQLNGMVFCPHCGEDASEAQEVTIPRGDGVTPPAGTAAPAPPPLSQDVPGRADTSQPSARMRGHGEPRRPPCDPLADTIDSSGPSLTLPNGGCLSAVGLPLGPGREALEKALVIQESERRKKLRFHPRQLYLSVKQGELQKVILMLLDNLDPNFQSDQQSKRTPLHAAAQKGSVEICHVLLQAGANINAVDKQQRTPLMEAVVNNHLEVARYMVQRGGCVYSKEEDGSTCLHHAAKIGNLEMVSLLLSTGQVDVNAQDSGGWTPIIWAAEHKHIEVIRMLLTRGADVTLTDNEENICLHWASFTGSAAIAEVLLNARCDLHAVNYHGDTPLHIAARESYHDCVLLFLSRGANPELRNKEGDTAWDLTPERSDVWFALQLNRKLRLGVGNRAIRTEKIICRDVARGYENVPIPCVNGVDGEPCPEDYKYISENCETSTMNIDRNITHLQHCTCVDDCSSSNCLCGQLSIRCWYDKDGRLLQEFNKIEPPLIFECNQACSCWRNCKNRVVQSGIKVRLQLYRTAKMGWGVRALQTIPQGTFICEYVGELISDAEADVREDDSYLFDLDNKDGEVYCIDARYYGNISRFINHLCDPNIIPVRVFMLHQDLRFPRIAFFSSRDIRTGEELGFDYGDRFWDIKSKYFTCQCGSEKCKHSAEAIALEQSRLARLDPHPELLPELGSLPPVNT
# Test: qHTS Assay for Inhibitors of Histone Lysine Methyltransferase G9a; note: nearly all actives have a fitted effect of over 75% in size
# Details: G9a H3K9 monomethylation, AlphaScreen, 2 h; activity, negative = inhibition: at 59 µM (top of the series) unless noted
# In short: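 Compounds were preincubated with 20 nM G9a for 15 min, after which biotinylated H3K9 peptide (500 nM) and SAM (20 uM) started a 2 h room-temperature reaction. Monomethylated product was quantified by antibody-based AlphaScreen chemiluminescence.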
# % is set by controls: 0 for no effect and ±100 for the full control effect; potency is the fitted concentration of half-maximal effect; tags give direction and shape of the fitted curve.
Structure (SMILES),Potency,"activity, negative = inhibition"
COc1ccc(-n2c(O)c(/C(C)=N/Nc3ccccc3)c(=O)[nH]c2=O)cc1,active: 39.8 µM,–
COc1ccc(CN2C(=O)CC(=O)NC2=S)cc1,active: 70.8 µM,–
C=C(C=O)CC1CC(O)[C@]2(C)OC3C[C@@H]4OC5C[C@]6(C)O[C@]7(C)CCC8OC9C[C@]%10(C)OC(/C(C)=C\CO)C(O)CC%10OC9CC(C)C8OC7CC6O[C@]5(C)C/C=C\C4OC3CC2O1 (stereo partly specified),–,inactive: -8.05% [at 2.33 µM]
Cc1ccc(C2CC(=O)C(C=NCCN3CCN(C(=O)Cc4ccccc4)CC3)=C(O)C2)cc1 (stereo unspecified),"inconclusive: 39.8 µM [inhibitor, single point]",–
O=[N+]([O-])c1ccc(-[n+]2c(-c3ccccc3)cc(-c3ccccc3)cc2-c2ccccc2)cc1,"inconclusive: 89.1 µM [inhibitor, single point]",–
COc1ccc2[nH]c(C)c(CCN3CCC(=O)C(C)C3C)c2c1 (stereo unspecified),"inconclusive: 11.2 µM [inhibitor, partial curve, poor fit]",–
O=c1[nH]c(=S)[nH]c(O)c1N=Nc1cc(S(=O)(=O)Nc2ccc(Cl)cc2)ccc1Cl,"inconclusive: 7.08 µM [inhibitor, single point]",–
CSc1nnc([C@@H](N)Cc2c[nH]c3ccccc23)o1,–,inactive: -28.5% [at 102 µM]
Cc1ccc(Cl)cc1N1CCN(C(=O)C2CCN(Cc3nc(-c4ccc(Cl)cc4)oc3C)CC2)CC1,"inconclusive: 12.6 µM [inhibitor, partial curve, poor fit]",–
CCN1CC2([N+](=O)[O-])CC=C(Cl)C([N+](=O)[O-])(C1)C2 (stereo unspecified),–,inactive: -2.84% [at 102 µM]
CCOc1cc2c(cc1OCC)-n1cccc1C(c1cccc(F)c1F)NC2 (stereo unspecified),active: 44.7 µM,–
COc1cc(/C=C2\C(=O)NC(=O)N(c3ccccc3)C2=O)cc(OC)c1OC,"inconclusive: 1.58 µM [inhibitor, single point]",–
CCC(C)NC(=O)c1c(N)n(Cc2ccc3c(c2)OCO3)c2nc3ccccc3nc12 (stereo unspecified),–,inactive: 9.96% [at 102 µM]
Fc1ccc(CN2CCN(c3ccc(Cl)cc3)CC2)cc1,–,inactive: -32.5% [at 102 µM]
O=C(O)Cc1cccnc1C(=O)O,"inconclusive: 0.316 µM [inhibitor, partial curve, poor fit]",–
CCCCC(CC)COCCCN=Cc1c(O)[nH]c(=S)[nH]c1=O (stereo unspecified),"inconclusive: 56.2 µM [inhibitor, single point]",–
CCC(C)N1C(=O)NC(=O)C2(Cc3cc(C)ccc3N(C)C2)C1=O (stereo unspecified),"inconclusive: 6.31 µM [inhibitor, full curve, poor fit]",–
CN1CCc2nc3sc(C(=O)NC4CC4)c(N)c3cc2C1,active: 8.91 µM,–
C=CCN1C(=O)NC(=O)C(Cc2ccc(OC)c(OC)c2)C1=O (stereo unspecified),"inconclusive: 12.6 µM [inhibitor, partial curve, poor fit]",–
O=c1[nH]c(=S)[nH]c(O)c1N=Nc1ccc2c(c1)OCO2,"inconclusive: 70.8 µM [inhibitor, single point]",–
NS(=O)(=O)c1ccc(N=Cc2c(O)n(-c3ccccc3)c(=O)[nH]c2=O)cc1,"inconclusive: 89.1 µM [inhibitor, partial curve, poor fit]",–

Structure (SMILES),Potency,"activity, negative = inhibition"
C[C@H]1[C@H](OC(=O)CCC(=O)NCc2ccc(C(=O)O)cc2)O[C@@H]2O[C@@]3(C)CC[C@H]4[C@H](C)CC[C@@H]1C24OO3,"inconclusive: 1.78 µM [inhibitor, partial curve, poor fit]",–
COc1ccccc1NC(=O)N(Cc1ccc2c(c1)OCO2)C1CCN(Cc2ccccc2)CC1,"inconclusive: 28.2 µM [inhibitor, single point]",–
Cc1ccsc1C(=O)C1CCCN(Cc2cnn(C)c2)C1 (stereo unspecified),"inconclusive: 35.5 µM [inhibitor, partial curve, poor fit]",–
CCCCn1c(-c2ccoc2C)n[nH]c1=S,active: 3.98 µM,–
CCOc1cccc(=NC2CCCCC2)c2c(C)n(C)c(C)c12,active: 50.1 µM,–
Nc1c(C(=O)Nc2ccc(Br)cc2F)sc2nc3c(cc12)N1CCC3CC1,"inconclusive: 35.5 µM [inhibitor, single point]",–
CCN1CCN(Cc2cc(Br)ccc2O)CC1,"inconclusive: 2.82 µM [inhibitor, partial curve, poor fit]",–
COc1ccc(N2CCN(c3ncnc4c3nc3n4CCCCC3)CC2)cc1,active: 11.2 µM,–
COc1ccc(C(=O)NC(=S)N2C[C@H]3C[C@H](C2)c2cccc(=O)n2C3)cc1OC,active: 44.7 µM,–
Cc1ccc(Cn2c(C)c3cnn(CC(=O)N4CCC5(CC4)OCCO5)c(=O)c3c2C)cc1,"inconclusive: 39.8 µM [inhibitor, single point]",–
COc1ccc(CN2C(=O)NC(=O)/C(=C/c3ccc([N+](=O)[O-])s3)C2=O)cc1,active: 8.91 µM,–
CCN(CC)S(=O)(=O)c1ccc(NN=C(C#N)C#N)cc1,"inconclusive: 14.1 µM [inhibitor, partial curve, poor fit]",–
CCc1nc(CNC(=O)c2cc(OC)c(OC)c(OC)c2)no1,"inconclusive: 25.1 µM [inhibitor, partial curve, poor fit]",–
O=C(Nc1ccc(Cl)cc1C(=O)c1ccccc1)c1ccccc1Br,"inconclusive: 17.8 µM [inhibitor, single point]",–
CCn1ccnc1CN1CCCC(C(=O)c2ccc(SC)cc2)C1 (stereo unspecified),"inconclusive: 44.7 µM [inhibitor, partial curve, poor fit]",–
CC1Oc2cc3c(-c4c(O)cc(O)c5c(O)c6c(cc45)OC(C)C(C)C6=O)c(O)cc(O)c3c(O)c2C(=O)C1C (stereo unspecified),active: 12.6 µM,–
CCOC(=O)C1=Nc2ccccc2/C1=C\c1c(O)n(C)c(=O)n(C)c1=O,"inconclusive: 89.1 µM [inhibitor, single point]",–
O=C(CN1CCCC1=O)NCCc1ccccc1,–,inactive: 27.1% [at 12.7 µM]
CCOC(=O)c1ccc(N2C(=O)CC(N3CCC(O)(c4ccc(Cl)cc4)CC3)C2=O)cc1 (stereo unspecified),"inconclusive: 35.5 µM [inhibitor, single point]",–
CCCCCCn1c(O)c(C=NC2CCN(Cc3ccccc3)CC2)c(=O)[nH]c1=O,"inconclusive: 28.2 µM [inhibitor, single point]",–

# — PubChem BioAssay AID504332 (National Center for Advancing Translational Sciences (NCATS), 2011)
